Literature values, collected in patent US20250073222A1, “METHODS FOR THE TREATMENT AND PREVENTION OF NON-VIRAL TICK-BORNE DISEASES AND SYMPTOMS THEREOF” (60 DEGREES PHARMACEUTICALS LLC, priority 2023, published 2025).

System: P. falciparum gametocytes
Conditions: in vivo, 1.66 mg/kg; cited from earlier work

For COc1cc(C)c2c(Oc3cccc(C(F)(F)F)c3)c(OC)cc(NC(C)CCCN)c2n1 (stereo not shown) [tafenoquine, N(4)-[2,6-Dimethoxy-4-methyl-5-[3-(trifluoromethyl)phenoxy]quinolin-8-yl]pentane-1,4-diamine], the “time until gametocytes were non-infectious to mosquitoes” value is listed as “within seven days”.
